# Test results as given in PubChem BioAssay AID686978 (National Center for Advancing Translational Sciences (NCATS), 2013).
# Several values for one entry are separate records, joined by “and”; a condition that tells them apart may be missing. Equal entries are not always repeated. Out of some 420,000 compounds screened, about 64,000 (15%) were called active. Inconclusive results, whose numbers are uncertain, are shown with a selection of clear calls. The call rests on the fitted dose curve; in most records, active means well fitted inhibition curve with a large enough effect; inconclusive means small, poorly fitted or top-dose-only effect; inactive means flat fitted curve, though single readings scatter. A potency beside an inconclusive call is a rough fit, not a confirmed value. Peptide text beside a SMILES is read from it.
# Assay: qHTS for Inhibitors of human tyrosyl-DNA phosphodiesterase 1 (TDP1): qHTS in cells in absence of CPT; further: nearly all actives have a fitted effect of over 55% in size
# Settings: DT40 Tdp1-/- hTDP1 cells, no CPT, ATP luminescence, 48 h; activity change, negative = growth inhibition: at 46.2 µM (top of the series) unless noted
# How it was run: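 Chicken DT40 Tdp1-/- cells complemented with human TDP1, screened without camptothecin (DMSO vehicle only), 400 cells/well. Compounds pin-transferred, cells incubated at 37 °C for at least 48 hr. Growth read as ATP-dependent luminescence (CellTiter-Glo, 30 min at RT).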
# On the % scale 0 is the no-effect control and ±100 the full control effect; potency means the concentration at half of the fitted maximal effect; tags describe the fitted curve by direction and shape.
SMILES,Potency,"activity change, negative = growth inhibition"
N/C(CSc1ccccn1)=N\OCc1c(Cl)cccc1Cl,"inconclusive: 14.6 µM [inhibitor, single point]",–
O=C(O)/C=C/c1cn(-c2ccccc2)nc1-c1ccc(-c2ccc([N+](=O)[O-])cc2)o1,"inconclusive: 14.6 µM [inhibitor, partial curve]",–
COCCn1c(=O)[nH]c2cc(C(=O)N3CCN(c4ccccc4)CC3)ccc2c1=O,"inconclusive: 20.6 µM [inhibitor, partial curve] and inconclusive: 18.4 µM [inhibitor, single point]",–
CCOC(=O)c1cc(-c2csc(Nc3c(C)cc(C)cc3C)n2)on1,–,inactive: -9.36%
Cc1cccc(OCCCC(=O)NCC(=O)Nc2cccc(C)c2C)c1,–,inactive: -22.8%
COc1ccc(NC(=O)CSc2nc3sc(C)cc3c(=O)n2C)c(OC)c1,active: 18.4 µM,–
CCCCN(C)CCC(=O)Nc1ccc(C)cc1,–,inactive: -15.2%
Cn1c(CNC(=O)c2ccco2)nnc1SCCOc1ccccc1,–,inactive: 4.95%
O=C(NCc1ccccc1)c1cccn1-c1nnc(N2CCCC2)s1,"inconclusive: 20.6 µM [inhibitor, single point]",–
O=C1Nc2ccccc2C(=O)N2[C@H](c3ccc(F)cc3)[C@@H]3C(=O)N(Cc4ccccc4)C(=O)[C@@H]3[C@H]12,"inconclusive: 29.1 µM [inhibitor, single point]",–
CCOc1ccc(-n2c(=O)[nH]cc(C(=O)Nc3ccc(OC)c(OC)c3)c2=O)cc1,–,inactive: -8.6%
COc1ccccc1/C=C/C(=O)NCCc1ccccn1,–,inactive: -3.61%
CC(C)c1ccc(C2=NN(c3ccccc3)C(=O)CC2)cc1,"inconclusive: 0.82 µM [inhibitor, full curve, poor fit]",–
CCOc1ccc(CCNC(=O)c2cc3sc(Cl)cc3n2C)cc1OCC,"inconclusive: 23.1 µM [inhibitor, partial curve]",–
CN(C)c1ccc(-c2csc(C(O)c3cccc(Cl)c3)n2)cc1 (stereo not given),active: 20.6 µM,–
COc1ccc(-c2cc(-c3ccco3)[nH]c(=O)c2C#N)cc1OC,"inconclusive: 23.1 µM [inhibitor, single point]",–
O=C(CCN1C(=O)c2ccccc2C1=O)Nc1sc2c(c1C(=O)NCC1CCCO1)CCC2 (stereo not given),"inconclusive: 32.6 µM [inhibitor, partial curve]",–
Cc1noc(C)c1CSc1nc2sc(C)c(C)c2c(=O)n1-c1ccccc1,"inconclusive: 23.1 µM [inhibitor, single point]",–
c1ccc(OCCN2C3=NCCN3c3ccccc32)cc1,"inconclusive: 23.1 µM [inhibitor, single point]",–
CN(Cc1ccccc1)C(=O)COC(=O)c1ccccc1SCC(=O)N1CCCC1,"inconclusive: 16.4 µM [inhibitor, single point]",–
C[C@@H]1CN([C@@H](C)CO)C(=O)c2cc(NS(=O)(=O)c3ccc(F)cc3)ccc2O[C@@H](C)CCCCO[C@H]1CN(C)C(=O)NC1CCCCC1,"inconclusive: 18.4 µM [inhibitor, single point]",–
CCC(CC)c1nnc(NC(=O)[C@@H](NC(=O)c2cccc(C)c2)C(C)C)s1,–,inactive: -5.61%
CC(NCc1ccc2c(c1)OCO2)C(=O)N1CCc2ccccc21 (stereo not given),"inconclusive: 23.1 µM [inhibitor, partial curve, poor fit]",–
Cc1ccc(Cl)cc1N1CCN(C(=O)CCC(=O)O)CC1,–,inactive: -18.4%

SMILES,Potency,"activity change, negative = growth inhibition"
O=C(NC1CCCCCC1)C(=S)NC1CCCCC1,–,inactive: 5.24%
COC(=O)c1c(NC(=O)c2ccco2)sc2c1C(C(=O)OC)CC2 (stereo not given),"inconclusive: 29.1 µM [inhibitor, single point]",–
COCc1cccc(C2=CC(=O)C[C@H](c3ccc(F)cc3)C2)c1,"inconclusive: 29.1 µM [inhibitor, single point]",–
Cc1csc(Sc2ccc([N+](=O)[O-])cc2C(=O)OCC(=O)NC(=O)NC(C)(C)C)n1,"inconclusive: 23.1 µM [inhibitor, partial curve, poor fit]",–
CCN(CC)CCNCC(=O)N1c2ccccc2CCc2ccc(NC(=O)OC)cc21,–,inactive: -7.34%
OCCCNc1ncnc2c1ncn2[C@H]1CN(Cc2ccco2)C[C@@H](CO)O1,–,inactive: -0.512%
Cc1ccc(C)c(NC(=O)C2C(c3ccccc3)C2(Cl)Cl)c1 (stereo not given),"inconclusive: 29.1 µM [inhibitor, single point]",–
O=C(CSc1nc(-c2ccco2)cc(C(F)(F)F)n1)N1CCN(Cc2ccccc2)CC1,"inconclusive: 25.9 µM [inhibitor, single point]",–
CCOc1ccc(CNC(=O)c2nn(-c3ccc(OC)cc3)c(=O)c3c2c2ccccc2n3C)cc1,–,inactive: -7.11%
C=CCN(C(=O)Cn1nc(C)n2c(cc3cc(C)ccc32)c1=O)c1ccccc1,"inconclusive: 29.1 µM [inhibitor, partial curve]",–
Cc1cc(C(=O)N2CCC2(C)C(=O)NS(=O)(=O)c2ccccc2Cl)nn1C (stereo not given),–,inactive: -8.47%
NC(=O)C1CCN(CC(=O)Nc2cc(S(=O)(=O)N3CCOCC3)ccc2N2CCCC2)CC1,–,inactive: 2.39%
COc1ccc2[nH]cc(CCNc3ncncc3-c3ccc(C(=O)N(C)C)cc3)c2c1,–,inconclusive: -31.4% [inhibitor]
CCOc1ccc2nc(NC(=O)Nc3ccccc3)sc2c1,"inconclusive: 0.326 µM [inhibitor, full curve, poor fit]",–
Cc1oc(-c2cccs2)nc1CN1CCC(CO)(CCOc2ccccc2)CC1,–,inconclusive: -35.6% [inhibitor]
O=C(OCC(=O)c1c[nH]c2ccccc12)c1ccc(OC(F)F)cc1,–,inactive: -24.1%
CN(c1ccc(C(=O)Nc2ccc(F)cc2F)cc1)S(=O)(=O)c1ccccc1,"inconclusive: 16.4 µM [inhibitor, single point]",–
CC1=C(c2ccc(C)cc2)S(=O)(=O)N(Cc2ccc(C(=O)Nc3ccc(C)c(F)c3)cc2)C1=O,"inconclusive: 23.1 µM [inhibitor, single point]",–
COc1cccc(-c2nc(N(C)C)c3ccccc3n2)c1,"inconclusive: 29.1 µM [inhibitor, single point]",–
Cc1nn(-c2cc(Cl)ccc2Cl)c(C)c1C(=O)O,–,inactive: -1.59%
O=C(CSc1nnc(CNC(=O)c2cccs2)o1)Nc1cccc(Cl)c1,–,inactive: 12.3%
COc1ccc2cc(-c3cc(C(=O)O)c4ccccc4n3)ccc2c1,"inconclusive: 23.1 µM [inhibitor, single point]",–
COc1ccc(-c2cc3ccc(O)c(CN4CCCC4)c3oc2=O)cc1,–,inactive: -27.4%
Cc1ccc(-c2c(C(=O)NCCc3ccccc3)oc(=O)c3ccccc23)cc1,"inconclusive: 23.1 µM [inhibitor, single point]",–

SMILES,Potency,"activity change, negative = growth inhibition"
Cc1ccnc(SCCn2c(N(C)Cc3ccccc3)nc3c2c(=O)n(C)c(=O)n3C)n1,"inconclusive: 29.1 µM [inhibitor, single point]",–
CC(C)C[C@@H](NC(=O)[C@H]1CCCN1C(=O)Cc1ccccc1)C(N)=O (HELM PEPTIDE1{[O=C(Cc1ccccc1)[*:2]].[dP].[dL].[am]}$$$$V2.0),–,inactive: 6.33%
CCCCN(C)c1c(C)nc2ccc(C(=O)Nc3ccc(OC)c(OC)c3)cn12,active: 14.6 µM,–
Cc1cc(Cl)ccc1-c1nc(NCCN(C)C)nc2ccsc12,"inconclusive: 23.1 µM [inhibitor, single point]",–
CCCSc1nc(-c2ccccc2)[nH]c1S(=O)(=O)c1ccc(C)cc1,active: 18.4 µM,–
Cc1cc2c(cc1C)N(C(=O)CSc1nncn1C)C(C)(C)c1ssc(=S)c1-2,"inconclusive: 20.6 µM [inhibitor, single point]",–
CC(=O)c1cccc(S(=O)(=O)N2CCC(C(=O)O)(c3ccccc3)CC2)c1,"inconclusive: 0.58 µM [inhibitor, single point]",–
Nc1ccc2c(c1)OC1(CCCC1)O2,–,inactive: -28.7%
CC1(c2ccc(OC(F)F)cc2)NC(=O)N(CC(=O)Nc2cccc(F)c2)C1=O (stereo not given),"inconclusive: 18.4 µM [inhibitor, single point]",–
CCOc1ccc(C(=O)NC(=S)Nc2ccccc2N2CCOCC2)cc1Br,active: 16.4 µM,–
COc1ccc(C(=O)N[C@H](C(=O)NCc2ccco2)C(C)C)cc1,"inconclusive: 29.1 µM [inhibitor, single point]",–
COC1=CC(=O)C(C(=O)c2ccccc2)=CC1=O,active: 5.8 µM,–
O=C(COC(=O)c1cccc(S(=O)(=O)N2CCCC2)c1)Nc1ccccc1Cl,–,inactive: -13.8%
CCCCCCCCOC(=O)CCc1c(C)[nH]c(=S)[nH]c1=O,–,inactive: -12.7%
C/C(=N\NC1=NCCN1)c1ccccc1,"inconclusive: 29.1 µM [inhibitor, partial curve]",–
N/C(=N\OS(=O)(=O)c1ccccc1)c1ccccn1,"inconclusive: 16.4 µM [inhibitor, single point]",–
CC1(C)CC(=O)C=C(c2cn[nH]n2)C1,–,inactive: -21.1%
CCc1nc2c(OCc3cccc(Cl)c3)cccn2c1N(C)C(=O)c1ccncc1,"inconclusive: 25.9 µM [inhibitor, single point]",–
COc1cc(/C=C2/SC(=S)NC2=O)ccc1OS(=O)(=O)c1ccc(C)cc1,active: 14.6 µM,–
COc1ccccc1NC(=O)c1cnc(SCC(=O)N2CCOCC2)n(C)c1=O,"inconclusive: 25.9 µM [inhibitor, single point]",–
COc1cccc(NS(=O)(=O)c2cc(C)ccc2OC)c1,"inconclusive: 18.4 µM [inhibitor, partial curve, poor fit]",–
COCCn1c(SCC(=O)NC(=O)NC2CCCC2)nc2ccccc2c1=O,"inconclusive: 13 µM [inhibitor, partial curve]",–
